# Assay results reported in the supplement of paper PMC4604168 (melanoma cell lines).
# The other results are listed elsewhere or left out. Most values come without repeats; read them as rough.
# System: RPMI7951
# Experiment: cell count relative to DMSO control; melanoma cells; higher = more viable cells
# Settings: library dose: low library concentration; 72 h
# 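Note: cell number obtained by counting DAPI-stained nuclei in high-throughput microscope images with image analysis software, screen run in 1,536-well plates.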
row,Structure (SMILES),cell count [%]
1,"Cc1cn(-c2cc(NC(=O)c3ccc(C)c(Nc4nccc(-c5cccnc5)n4)c3)cc(C(F)(F)F)c2)cn1 [nilotinib] + NCC(=O)Nc1ccc(-n2nc(C(F)(F)F)cc2-c2ccc3c(ccc4ccccc43)c2)cc1 [OSU03012] (first compound 0.2 µM, partner dose 1 µM)",77
2,"Cc1cn(-c2cc(NC(=O)c3ccc(C)c(Nc4nccc(-c5cccnc5)n4)c3)cc(C(F)(F)F)c2)cn1 [nilotinib] + CO[C@@H]1[C@H](N(C)C(=O)c2ccccc2)C[C@H]2O[C@]1(C)n1c3ccccc3c3c4c(c5c6ccccc6n2c5c31)C(=O)NC4 [Midostaurin] (first compound 0.2 µM, partner dose 0.08 µM)",90.3
3,"Cc1cc(Nc2cc(N3CCN(C)CC3)nc(/C=C/c3ccccc3)n2)n[nH]1 + COC(=O)c1sccc1S(=O)(=O)Nc1ccc(Nc2ccccc2)cc1OC [GSK0660] (first compound 0.04 µM, partner dose 1 µM)",95.8
4,"COc1ccc(C2=N[C@@H](c3ccc(Cl)cc3)[C@@H](c3ccc(Cl)cc3)N2C(=O)N2CCNC(=O)C2)c(OC(C)C)c1 [Nutlin-3] + CC(C)CCN1c2nc(Nc3cc(F)c(O)c(F)c3)ncc2N(C)C(=O)C1C [BID1870] (first compound 0.1 µM, partner dose 0.2 µM)",104
5,"COc1ccc(C2=N[C@@H](c3ccc(Cl)cc3)[C@@H](c3ccc(Cl)cc3)N2C(=O)N2CCNC(=O)C2)c(OC(C)C)c1 [Nutlin-3] + COc1ccc2c(c1)CCC1C2CCC2(C)C(NCCCCCCN3C(=O)C=CC3=O)CCC12 [U73122] (first compound 0.1 µM, partner dose 0.4 µM)",65.5
6,"Cc1cc(Nc2cc(N3CCN(C)CC3)nc(/C=C/c3ccccc3)n2)n[nH]1 + Oc1nc(-c2ccc(C(F)(F)F)cc2)nc2c1CSCC2 [XAV939] (first compound 0.04 µM, partner dose 2 µM)",101
7,"COc1ccc(C2=N[C@@H](c3ccc(Cl)cc3)[C@@H](c3ccc(Cl)cc3)N2C(=O)N2CCNC(=O)C2)c(OC(C)C)c1 [Nutlin-3] + CCc1ccc(CCOc2ccc(CC3SC(=O)NC3=O)cc2)nc1 [pioglitazone] (first compound 0.1 µM, partner dose 2 µM)",110
8,"COc1ccc(C2=N[C@@H](c3ccc(Cl)cc3)[C@@H](c3ccc(Cl)cc3)N2C(=O)N2CCNC(=O)C2)c(OC(C)C)c1 [Nutlin-3] + O=C(CCCCCCC(=O)Nc1ccccc1)NO [vorinostat] (first compound 0.1 µM, partner dose 0.08 µM)",103
9,"Cn1c(=O)n(-c2ccc(C(C)(C)C#N)cc2)c2c3cc(-c4cnc5ccccc5c4)ccc3ncc21 + Cn1cncc1[C@@](N)(c1ccc(Cl)cc1)c1ccc2c(c1)c(-c1cccc(Cl)c1)cc(=O)n2C [tipifarnib] (first compound 0.004 µM, partner dose 0.01 µM)",97.7

# System: RVH-421
# Experiment: as above
# Settings: library dose: low library concentration; 72 h
row,Structure (SMILES),cell count [%]
1,"COc1ccc(C2=N[C@@H](c3ccc(Cl)cc3)[C@@H](c3ccc(Cl)cc3)N2C(=O)N2CCNC(=O)C2)c(OC(C)C)c1 [Nutlin-3] + c1cc(-c2cnn3cc(-c4ccc(OCCN5CCCCC5)cc4)cnc23)ccn1 [Dorsomorphin] (first compound 0.1 µM, partner dose 0.4 µM)",99.8
2,"Cn1c(=O)n(-c2ccc(C(C)(C)C#N)cc2)c2c3cc(-c4cnc5ccccc5c4)ccc3ncc21 + COc1cc(N2CCC(N3CCN(C)CC3)CC2)ccc1Nc1ncc(Cl)c(Nc2ccccc2S(=O)(=O)C(C)C)n1 [NVP-TAE684] (first compound 0.004 µM, partner dose 0.08 µM)",87.6
3,"COc1ccc(C2=N[C@@H](c3ccc(Cl)cc3)[C@@H](c3ccc(Cl)cc3)N2C(=O)N2CCNC(=O)C2)c(OC(C)C)c1 [Nutlin-3] + COc1cc2c(Oc3ccc4[nH]c(C)cc4c3F)ncnc2cc1OCCCN1CCCC1 [cediranib] (first compound 0.1 µM, partner dose 0.4 µM)",98.4
4,"CC(C)C[C@H](NC(=O)[C@H](Cc1ccccc1)NC(=O)c1cnccn1)B(O)O [Bortezomib] + NC(=O)Nc1cc(-c2cccc(F)c2)sc1C(=O)N[C@H]1CCCNC1 [AZD7762] (first compound 0.001 µM, partner dose 0.02 µM)",75.1
5,"CC(C)C[C@H](NC(=O)[C@H](Cc1ccccc1)NC(=O)c1cnccn1)B(O)O [Bortezomib] + O=C(O)c1ccc(-c2c[nH]c3ncc(-c4ccccc4)cc23)cc1C1CCCC1 [GSK650394] (first compound 0.001 µM, partner dose 0.16 µM)",48.1
6,"COc1ccc(C2=N[C@@H](c3ccc(Cl)cc3)[C@@H](c3ccc(Cl)cc3)N2C(=O)N2CCNC(=O)C2)c(OC(C)C)c1 [Nutlin-3] + O=C1NC(=O)/C(=C/c2ccc(-c3ccc(F)cc3O)o2)S1 [AS252424] (first compound 0.1 µM, partner dose 1 µM)",73.7
7,"Cn1c(=O)n(-c2ccc(C(C)(C)C#N)cc2)c2c3cc(-c4cnc5ccccc5c4)ccc3ncc21 + NCC(=O)Nc1ccc(-n2nc(C(F)(F)F)cc2-c2ccc3c(ccc4ccccc43)c2)cc1 [OSU03012] (first compound 0.004 µM, partner dose 1 µM)",108
8,"CC(C)C[C@H](NC(=O)[C@H](Cc1ccccc1)NC(=O)c1cnccn1)B(O)O [Bortezomib] + O=C(Nc1ccccc1)c1cc([N+](=O)[O-])ccc1Cl [GW9662] (first compound 0.001 µM, partner dose 2 µM)",170
9,"COc1ccc(C2=N[C@@H](c3ccc(Cl)cc3)[C@@H](c3ccc(Cl)cc3)N2C(=O)N2CCNC(=O)C2)c(OC(C)C)c1 [Nutlin-3] + Cn1cc(/C=C2\C(=O)Nc3cccnc32)c2ccccc21 [GW441756] (first compound 0.1 µM, partner dose 0.4 µM)",115
10,"Cn1c(=O)n(-c2ccc(C(C)(C)C#N)cc2)c2c3cc(-c4cnc5ccccc5c4)ccc3ncc21 + OCCn1cc(-c2cnc3nnn(Cc4ccc5ncccc5c4)c3n2)cn1 [PF04217903] (first compound 0.004 µM, partner dose 1 µM)",117
11,"Cc1cn(-c2cc(NC(=O)c3ccc(C)c(Nc4nccc(-c5cccnc5)n4)c3)cc(C(F)(F)F)c2)cn1 [nilotinib] + Oc1nc(-c2ccc(C(F)(F)F)cc2)nc2c1CSCC2 [XAV939] (first compound 0.2 µM, partner dose 2 µM)",103
12,"COc1ccc(C2=N[C@@H](c3ccc(Cl)cc3)[C@@H](c3ccc(Cl)cc3)N2C(=O)N2CCNC(=O)C2)c(OC(C)C)c1 [Nutlin-3] + CO[C@@H]1[C@H](N(C)C(=O)c2ccccc2)C[C@H]2O[C@]1(C)n1c3ccccc3c3c4c(c5c6ccccc6n2c5c31)C(=O)NC4 [Midostaurin] (first compound 0.1 µM, partner dose 0.08 µM)",71.3
13,"COc1ccc(C2=N[C@@H](c3ccc(Cl)cc3)[C@@H](c3ccc(Cl)cc3)N2C(=O)N2CCNC(=O)C2)c(OC(C)C)c1 [Nutlin-3] + C[C@@H]1CCN(C(=O)CC#N)C[C@@H]1N(C)c1ncnc2[nH]ccc12 [CP690550] (first compound 0.1 µM, partner dose 1 µM)",87
14,"Cc1cn(-c2cc(NC(=O)c3ccc(C)c(Nc4nccc(-c5cccnc5)n4)c3)cc(C(F)(F)F)c2)cn1 [nilotinib] + Cn1cncc1[C@@](N)(c1ccc(Cl)cc1)c1ccc2c(c1)c(-c1cccc(Cl)c1)cc(=O)n2C [tipifarnib] (first compound 0.2 µM, partner dose 0.01 µM)",82.6
15,"CC(C)C[C@H](NC(=O)[C@H](Cc1ccccc1)NC(=O)c1cnccn1)B(O)O [Bortezomib] + CC(C)CCN1c2nc(Nc3cc(F)c(O)c(F)c3)ncc2N(C)C(=O)C1C [BID1870] (first compound 0.001 µM, partner dose 0.2 µM)",52.8
16,"Cc1cn(-c2cc(NC(=O)c3ccc(C)c(Nc4nccc(-c5cccnc5)n4)c3)cc(C(F)(F)F)c2)cn1 [nilotinib] + O=C(CCCCCCC(=O)Nc1ccccc1)NO [vorinostat] (first compound 0.2 µM, partner dose 0.08 µM)",99.2
17,"Cn1c(=O)n(-c2ccc(C(C)(C)C#N)cc2)c2c3cc(-c4cnc5ccccc5c4)ccc3ncc21 + O=C1NC(=O)/C(=C/c2ccc(-c3ccc(F)cc3O)o2)S1 [AS252424] (first compound 0.004 µM, partner dose 1 µM)",86.7
18,"CC(C)C[C@H](NC(=O)[C@H](Cc1ccccc1)NC(=O)c1cnccn1)B(O)O [Bortezomib] + COc1ccc(-c2ccc3c(N4CCOCC4)nc(N4C[C@@H](C)O[C@@H](C)C4)nc3n2)cc1CO [KU0063794] (first compound 0.001 µM, partner dose 0.02 µM)",47.7
19,"Cc1cc(Nc2cc(N3CCN(C)CC3)nc(/C=C/c3ccccc3)n2)n[nH]1 + CC(C)(C)c1cnc(CSc2cnc(NC(=O)C3CCNCC3)s2)o1 [SNS-032] (first compound 0.04 µM, partner dose 0.01 µM)",86.5
20,"Cc1cc(Nc2cc(N3CCN(C)CC3)nc(/C=C/c3ccccc3)n2)n[nH]1 + O=C(O)c1ccc(-c2c[nH]c3ncc(-c4ccccc4)cc23)cc1C1CCCC1 [GSK650394] (first compound 0.04 µM, partner dose 0.16 µM)",99.2
